# Laboratory results taken from the supplement of paper PMC7826260.
# Some of the results follow. One pool of 16,384 single-stranded DNAs met each Rep nickase domain in vitro (3 µM enzyme, 1 h, 37 °C); shown is the middle of each 90-letter strand. A value is the log2 ratio of uncut reads to the pool without enzyme; the lower, the more was cut; hits are not called. Because reads are shares of a total, they shift together, so uncut sequences can rise above 0 when many others are cut.
# What was measured:
# Test in all cases: uncleaved DNA left, log2 of reads against the no-enzyme library (log2 ratio); higher = less cleavage (more negative = more Rep cleavage of the k-mer); sequences stand for … in CTCGTCCG…ACCGGAGA
# [1] = system: T1, Rep nickase domain of Muscovy duck circovirus
# T1 sequence (protein, residues 1-111, tag omitted): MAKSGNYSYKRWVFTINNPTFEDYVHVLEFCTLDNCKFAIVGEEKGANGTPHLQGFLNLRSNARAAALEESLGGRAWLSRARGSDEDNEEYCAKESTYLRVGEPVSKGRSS
# Procedure: (§1)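 A pool of 90-nt single-stranded DNAs with seven random bases just before the constant AC of the nick site (name = the seven bases) was cut by 3 µM recombinant His6-SUMO-tagged Rep nickase domain (300 nM DNA, 50 mM HEPES pH 8.0, 50 mM NaCl, 1 mM MnCl2, 1 h, 37 °C, three replicates). Uncut DNA was amplified and sequenced.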
# [2] = system: T2, Rep nickase domain of banana bunchy top virus
# T2 sequence (protein, residues 1-94, tag omitted): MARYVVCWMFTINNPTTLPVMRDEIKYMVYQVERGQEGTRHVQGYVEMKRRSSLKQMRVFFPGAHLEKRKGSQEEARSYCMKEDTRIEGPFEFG
# Procedure: as §1
# [3] = system: T3, Rep nickase domain of cabbage leaf curl virus
# T3 sequence (protein, residues 1-116, tag omitted): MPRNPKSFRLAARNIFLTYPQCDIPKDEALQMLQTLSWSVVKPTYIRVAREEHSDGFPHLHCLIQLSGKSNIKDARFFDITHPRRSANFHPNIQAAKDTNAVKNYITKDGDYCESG
# Procedure: as §1
# [4] = system: T4, Rep nickase domain of chickpea chlorotic dwarf virus
# T4 sequence (protein, residues 1-124, tag omitted): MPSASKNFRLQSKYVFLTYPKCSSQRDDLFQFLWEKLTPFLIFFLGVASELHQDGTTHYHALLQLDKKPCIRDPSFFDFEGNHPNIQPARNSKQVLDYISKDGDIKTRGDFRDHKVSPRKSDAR
# Procedure: as §1
# [5] = system: T5, Rep nickase domain of faba bean necrotic yellows virus
# T5 sequence (protein, residues 1-98, tag omitted): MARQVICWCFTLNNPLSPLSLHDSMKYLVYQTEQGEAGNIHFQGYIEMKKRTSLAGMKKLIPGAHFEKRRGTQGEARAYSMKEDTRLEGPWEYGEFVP
# Procedure: as §1
# [6] = system: T6, Rep nickase domain of maize striate mosaic virus
# T6 sequence (protein, residues 1-117, tag omitted): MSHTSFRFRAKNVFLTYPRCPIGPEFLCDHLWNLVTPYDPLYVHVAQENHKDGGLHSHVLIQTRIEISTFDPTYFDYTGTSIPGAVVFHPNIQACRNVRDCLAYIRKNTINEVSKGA
# Procedure: as §1
# [7] = system: T7, Rep nickase domain of porcine circovirus 2
# T7 sequence (protein, residues 2-116, tag omitted): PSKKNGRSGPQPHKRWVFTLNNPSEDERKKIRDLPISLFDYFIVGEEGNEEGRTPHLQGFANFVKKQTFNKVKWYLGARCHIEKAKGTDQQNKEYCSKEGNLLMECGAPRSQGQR
# Procedure: as §1
# [8] = system: T8, Rep nickase domain of tomato yellow leaf curl virus
# T8 sequence (protein, residues 1-136, tag omitted): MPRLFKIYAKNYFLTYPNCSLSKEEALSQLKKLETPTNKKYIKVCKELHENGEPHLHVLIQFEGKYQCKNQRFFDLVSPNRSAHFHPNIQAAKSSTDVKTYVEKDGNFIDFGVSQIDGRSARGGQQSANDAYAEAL
# Procedure: as §1
# [9] = system: T9, Rep nickase domain of wheat dwarf virus
# T9 sequence (protein, residues 1-137, tag omitted): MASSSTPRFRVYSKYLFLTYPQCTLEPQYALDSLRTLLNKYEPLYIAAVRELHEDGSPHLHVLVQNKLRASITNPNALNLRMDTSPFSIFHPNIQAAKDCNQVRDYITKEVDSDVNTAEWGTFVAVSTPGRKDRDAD
# Procedure: as §1
Sequence,uncleaved DNA left (log2) [1],uncleaved DNA left (log2) [2],uncleaved DNA left (log2) [3],uncleaved DNA left (log2) [4],uncleaved DNA left (log2) [5],uncleaved DNA left (log2) [6],uncleaved DNA left (log2) [7],uncleaved DNA left (log2) [8],uncleaved DNA left (log2) [9]
TGAGCGT,0.0265,-0.0848,-0.413,-0.487,0.092,-0.925,0.0498,-0.0336,-0.158
AATCTAT,0.0484,0.032,0.136,-1.29,0.0535,-0.163,-0.707,0.106,0.227
GGCCTAC,-0.085,0.0724,0.429,0.842,0.0131,1.62,-0.083,-0.0281,0.113
TGTCGGC,-0.0157,-0.016,0.227,0.167,-0.193,-0.119,-0.00214,-0.147,-0.0351
CTGGAAG,-0.00913,-0.0222,-0.786,-0.411,-0.051,-1.01,0.139,0.0282,-0.0685
CCAACTC,0.0113,-0.0347,-0.082,-1.63,0.0274,-0.424,0.0221,-0.0894,-0.0387
CCTAGAC,-0.0565,-0.243,0.0646,0.059,-0.0203,-0.561,0.112,-0.192,-0.104
ACCCCAT,-0.215,-0.106,-0.211,-0.681,-0.0702,-0.495,-0.279,-0.0519,0.0161
GTTTTCC,0.0113,-0.032,0.354,0.776,-0.041,1.57,0.0154,0.0791,0.0885
ACTTTAG,0.237,0.0941,-0.673,-0.268,0.0851,-1.1,0.16,0.0692,0.0384
ACTACTT,0.00912,-0.0839,-0.149,-2.69,0.129,-0.577,-2.04,-0.0762,-0.125
GTTTCTT,-0.269,0.0867,0.337,0.61,-0.0483,1.74,-0.402,0.158,0.118
GCGCGGT,-0.032,-0.00996,-0.0945,0.154,-0.089,0.197,0.0432,-0.0344,-0.0483
GAATGTT,-2.78,-2.22,-3.03,-2.73,-0.856,-2.16,-3.29,-1.68,-3.08
CATCTCT,-0.203,-0.14,-0.308,-2.73,-0.0794,-0.26,-0.437,-0.102,-0.164
